# Out of some 220,000 compounds screened, about 16,000 (7.3%) were called active. This list was built around the results that the source calls inconclusive (neither active nor inactive); the mix of calls is not that of the screen. Calls come from the whole dose curve; as a rule, active = well fitted inhibition curve with a large enough effect (not every such curve was filed as active); inconclusive = small, poorly fitted or top-dose-only effect, or another doubt; inactive = no such curve, though single readings can be large or run the other way. No potency is given beside an inconclusive call; the fits are too rough.
# Molecular target: Aldehyde dehydrogenase 1A1 (Homo sapiens) (UniProt P00352)
# Assay: qHTS Assay for Inhibitors of Aldehyde Dehydrogenase 1 (ALDH1A1);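 for activity, negative = inhibition: plate controls were no enzyme wells and a reference inhibitor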
# Conditions: Purified ALDH1A1, NADH fluorescence, propionaldehyde substrate; series mostly up to 75.3 µM; activity, negative = inhibition: at the top concentration
# Potency is the fitted concentration of half-maximal effect; tags give direction and shape of the fitted curve.
# Chain of UniProt P00352 (P00352 whole entry, looked up): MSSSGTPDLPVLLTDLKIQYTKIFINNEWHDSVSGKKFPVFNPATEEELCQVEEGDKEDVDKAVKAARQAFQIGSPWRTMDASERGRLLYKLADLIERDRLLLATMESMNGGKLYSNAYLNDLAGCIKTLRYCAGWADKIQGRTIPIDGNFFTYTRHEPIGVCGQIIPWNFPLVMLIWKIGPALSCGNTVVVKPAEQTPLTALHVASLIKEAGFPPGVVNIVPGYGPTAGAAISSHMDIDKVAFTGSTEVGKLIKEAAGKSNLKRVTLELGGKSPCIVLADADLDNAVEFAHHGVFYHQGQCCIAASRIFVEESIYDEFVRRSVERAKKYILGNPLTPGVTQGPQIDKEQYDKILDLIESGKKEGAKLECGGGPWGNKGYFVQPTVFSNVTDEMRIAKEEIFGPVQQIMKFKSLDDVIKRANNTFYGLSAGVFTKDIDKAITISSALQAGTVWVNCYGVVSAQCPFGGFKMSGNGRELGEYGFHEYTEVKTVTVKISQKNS
SMILES,Potency,"activity, negative = inhibition"
CNc1nc(-c2ccc3c(c2)CCN3C(=O)c2ccccc2F)c(C)s1,active: 11.2 µM,–
COc1cccc(/C=C/C(=O)OCC(=O)c2ccc3c(c2)NC(=O)CO3)c1OC,"inconclusive [inhibitor, single point]",–
CN1/C(=C\C(=O)Nc2ccc(F)cc2)C(C)(C)c2ccccc21,–,inactive: -2.42%
CN(c1ccc(C(=O)NCCSCc2c(F)cccc2Cl)cc1)S(C)(=O)=O,"inconclusive [inhibitor, single point]",–
CCOc1ccc(C2Nc3cccc4cccc(c34)N2)cc1OC,"inconclusive [inhibitor, partial curve]",–
Cc1cc(C(=O)COc2ccccc2Cl)c(C)n1-c1ccc2c(c1)OCO2,–,inactive: -6.43%
S=c1[nH]nc(Cc2cccc3ccccc23)n1-c1ccccc1,"inconclusive [inhibitor, single point]",–
Cn1c2ccccc2c2cc(C(=O)NNC(=O)CCl)sc21,"inconclusive [inhibitor, partial curve]",–
Cc1ccc(/C=C/C(=O)NCC2COc3ccccc3O2)o1 (centres undefined),active: 6.31 µM,–
CCOc1cc(NC(=O)c2ccco2)c(OCC)cc1NC(=O)Cc1cccc(OC)c1,"inconclusive [inhibitor, full curve]",–
COc1ccc(S(=O)(=O)N2CCCC2C(=O)Nn2cnnc2)cc1 (centres undefined),–,inactive: 0.826%
CN(CC(=O)NC1CCCc2ccccc21)C1CCCCC1 (centres undefined),"inconclusive [inhibitor, partial curve]",–
O=C(CN1CCN(C(=O)c2ccco2)CC1)Nc1ccc(Cl)c(C(F)(F)F)c1,active: 17.8 µM,–
COc1ccc(C)cc1NC(=O)CN(C)S(=O)(=O)c1cccs1,–,inactive: -15.2%
COc1ccc([C@H]2[C@H](C(C)=O)N3N=Cc4ccccc4C3C23C(=O)OC(C)(C)OC3=O)cc1 (some centres undefined),active: 10 µM,–
CCn1c(N)c(C(=O)NCc2cccnc2)sc1=S,–,inactive: 1.19%
Cc1cc(C(=O)CN2CCCC2)c(C)n1-c1ccc(Cl)cc1,–,inactive: -2.38%
C=CCOC(=O)C1=C(C)NC(SCC(=O)N(CC)CC)=C(C#N)C1c1ccccc1 (centres undefined),"inconclusive [inhibitor, single point]",–
CC1=C(C(=O)OCC(C)C)C2(O)C(=O)c3ccccc3C2(O)N1 (centres undefined),"inconclusive [inhibitor, single point]",–
COc1cccc(NC(=O)Cn2c(CCC(=O)O)ccc2-c2ccc(C)cc2)c1,–,inactive: 1.76%
CSc1nc(C)cc(Oc2ccc(=O)n(C)n2)n1,"inconclusive [inhibitor, single point]",–
Brc1ccc(-c2nc(N/N=C/c3cccnc3)c3ccccc3n2)cc1,"inconclusive [inhibitor, single point]",–
COc1ccc(Nc2c(-c3ccc(C)cc3)nc3cnccn23)cc1,–,inactive: -13.3%
CCOC(=O)c1cnc(SC)nc1Oc1cccc(NS(=O)(=O)c2ccccc2)c1,"inconclusive [inhibitor, partial curve]",–
O=C(O)/C=C/c1cn(Cc2ccccc2)nc1-c1cccs1,"inconclusive [inhibitor, single point]",–

SMILES,Potency,"activity, negative = inhibition"
O=C(NC(=S)Nc1ccccc1Cl)c1csnn1,active: 4.47 µM,–
CCCCn1c(SCc2nnc(-c3ccccc3)o2)nc2c1c(=O)n(C)c(=O)n2C,–,inactive: -11.8%
CCN1C(C)=C(C)S/C1=C1\SC(=S)N(N)C1=O,active: 20 µM,–
CCOC(=O)c1cnc(SCc2ccc(C)cc2)nc1N,"inconclusive [inhibitor, single point]",–
CC(C)(C)c1ccc(S(=O)(=O)Nc2cccc(C3OCCCO3)c2)cc1,active: 25.1 µM,–
CC(=O)Nc1ccc(S(=O)(=O)NCCSCc2ccc(Cl)cc2Cl)cc1,"inconclusive [inhibitor, single point]",–
CC(=O)Cc1nsc(NC(=O)c2ccc(-c3ccc(Cl)c(Cl)c3)o2)n1,"inconclusive [inhibitor, single point]",–
CCc1ccc(C2NC(c3ccc(CC)cc3)C([N+](=O)[O-])C(C)(C)C2[N+](=O)[O-])cc1 (centres undefined),–,inactive: -2.57%
CCOC(=O)c1cnc(-c2ccccc2)[nH]c1=O,–,inactive: 2.2%
COc1ccccc1C1/C(=C(/O)c2ccc(OC(C)C)cc2)C(=O)C(=O)N1c1cc(C)on1 (centres undefined),"inconclusive [inhibitor, single point]",–
N/C(=N\c1nc(CSc2nnnn2-c2ccccc2)cc(=O)[nH]1)Nc1ccccc1,active: 5.01 µM,–
Cc1ccc(/C=N/NC(=O)CN2CCN(Cc3ccccc3)CC2)s1,"inconclusive [inhibitor, single point]",–
COC(=O)c1ccc2c(=O)n(CC3CCCO3)c(=S)[nH]c2c1 (centres undefined),active: 1.78 µM,–
CC1CCCN(C(=O)Cn2cnc3c2c(=O)n(C)c(=O)n3C)C1 (centres undefined),"inconclusive [inhibitor, single point]",–
CCn1c(Cc2ccccc2)nnc1SCC(=O)Nc1ccc(N2CCOCC2)c(Cl)c1,"inconclusive [inhibitor, single point]",–
O=C(O)C1CC=CCC1C(=O)Nc1ccc(Oc2ccc(Cl)cc2)cc1 (centres undefined),active: 1.41 µM,–
O=C(CCn1cnc2ccccc21)N/N=C/c1ccccc1O,–,inactive: 2.96%
Cc1ccc(N2CC(C(=O)O)CC2=O)cc1 (centres undefined),–,inactive: -0.389%
Cc1ccccc1-c1nc2ccccc2[nH]1,"inconclusive [inhibitor, single point]",–
COc1ccc(CCNC(=O)CC2SC(=Nc3cc(C)cc(C)c3)NC2=O)cc1OC (centres undefined),active: 12.6 µM,–
Cc1ccc(-n2nc3c(c2NC(=O)c2ccc(Br)o2)CSC3)c(C)c1,"inconclusive [inhibitor, single point]",–
Cc1ccc(CN2C(=O)c3ccccc3C2C(=O)NCC2CCCO2)cc1 (centres undefined),"inconclusive [inhibitor, single point]",–
CCN(CC)S(=O)(=O)c1ccc(Cl)c(C(=O)Nc2cc(C)nn2-c2ccccc2C(F)(F)F)c1,"inconclusive [inhibitor, single point]",–
O=C1C=C(c2ccc(Cl)cc2)C(=O)N1Nc1ccccc1,"inconclusive [inhibitor, partial curve, poor fit]",–
Cc1cccc(OC(=O)Cn2c(C(F)(F)F)nc3ccccc32)c1,"inconclusive [inhibitor, single point]",–

SMILES,Potency,"activity, negative = inhibition"
Cc1ccccc1N1C(=O)c2cccc3c(N(C)CCO)ccc(c23)C1=O,"inconclusive [inhibitor, partial curve]",–
CCN(CC)C(=O)CSc1nc2cc3c(cc2c(=O)n1Cc1ccco1)OCO3,active: 0.891 µM,–
Cc1ccc(NC(=O)c2ccc3ccccc3n2)nc1,–,inactive: -6.42%
CCCCC(CC)COC(=O)COc1ccc(Cl)cc1Cl (centres undefined),"inconclusive [inhibitor, single point]",–
CO/N=C(/C(=O)NC1C(=O)N2C(C(=O)O)=C(CSc3nc(=O)c(O)nn3C)CSC12)c1csc(N)n1 (centres undefined),inactive,–
O=C(NCCNC(=O)c1ccc(Br)o1)c1ccc(Br)o1,"inconclusive [inhibitor, single point]",–
COC(=O)Cc1csc(Nc2c(C)n(C)n(-c3ccccc3)c2=O)n1,–,inactive: 11.6%
CCCCn1nnnc1NCc1ccc(N2CCCC2)cc1,"inconclusive [inhibitor, single point]",–
N=c1c(C(=O)NC2CCCC2)cc2c(=O)n3ccccc3nc2n1CCN1CCOCC1,"inconclusive [inhibitor, partial curve]",–
N#C/C(=C/c1ccc(N2CCCCC2)o1)C(=O)Nc1ccc2ccccc2c1,"inconclusive [inhibitor, partial curve]",–
COCCCN1CN(S(=O)(=O)c2ccc(Cl)cc2)c2nc3ccccc3nc21,"inconclusive [inhibitor, partial curve]",–
C=C1c2ccccc2O[C@H](C(=O)OCC)[C@@H]1C1CCCCC1 (tested in a mixture with another compound),"inconclusive [inhibitor, partial curve]",–
Cc1ccc(OC(=O)c2cccc(S(=O)(=O)N3CCCC3)c2)c(-n2nc3ccccc3n2)c1,–,inactive: -2.17%
COc1cc(/C=N/NC(=O)Cc2c[nH]c3ccccc23)cc(OC)c1OC,–,inactive: 9.13%
Cc1ccc([N+](=O)[O-])cc1S(=O)(=O)n1ccnc1C,–,inactive: -0.872%
Cc1cc(NC(=O)CSc2nc(C(C)C)nc3ccccc23)no1,"inconclusive [inhibitor, single point]",–
Cc1cc(/C=C2/C(=N)N3C(=NC2=O)SN=C3S(C)(=O)=O)c(C)n1-c1ccccc1F,"inconclusive [inhibitor, single point]",–
Cc1ccc(CNC(=O)C(=O)Nc2nccs2)cc1,–,inactive: 3.39%
CCOC(=O)c1sc2ncn(CC(=O)N(CC)CC)c(=O)c2c1C,"inconclusive [inhibitor, single point]",–
Cc1ccc(C)n1CCN1CCN(CC(=O)Nc2ccc(S(N)(=O)=O)cc2)CC1,active: 25.1 µM,–
COc1ccc(C=O)c(OC)c1,"inconclusive [inhibitor, single point]",–
COc1ccc(C2=CC(c3sccc3C)n3nnnc3N2)cc1 (centres undefined),active: 2 µM,–
Cc1ccc(OCC(=O)N/N=C\c2cn(Cc3ccccc3)c3ccccc23)cc1C,active: 12.6 µM,–
Cc1ccccc1-n1c(-c2ccc(Cl)cc2)cnc1SCC(=O)NC1CCS(=O)(=O)C1 (centres undefined),"inconclusive [inhibitor, single point]",–
